Test results taken from PubChem BioAssay AID1458 (National Center for Advancing Translational Sciences (NCATS), 2008).
Out of some 210,000 compounds screened, about 5,900 (2.8%) were called active. The inconclusive results got no clear call from the source; some entries with a clear call stand among them for comparison. Calls follow the shape of the dose curve; as a rule, active = well fitted activation curve with a large enough effect; inconclusive = small, poorly fitted or top-dose-only effect; inactive = no such curve, though single readings can be large or run the other way. Potencies of inconclusive entries are doubtful fits and often do not repeat.

experiment: qHTS Assay for Enhancers of SMN2 Splice Variant Expression; settings: HEK293 SMN2-luciferase splicing reporter, luminescence, 30-36 h; activity change, positive = activation: at 46.1 µM (top of the series); also: nearly all actives have a fitted effect of over 55% in size; as to activity change, positive = activation: % of control where 0% means no effect
Summary of the method: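 HEK293 cells carry an SMN2 minigene-luciferase reporter in which exon 7 inclusion puts luciferase in frame. Cells were seeded at 2000 cells/well, attached for 10-12 hours, then exposed to compounds for 30-36 hours at 37C before ONE-Glo luminescence.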
Potency is read from the fitted curve at half-maximal effect; tags tell the direction and shape of the fitted curve.

SMILES | Potency | activity change, positive = activation
COCC(=O)n1nc(-c2ccccc2)nc1NCc1ccc(N(C)C)cc1 | inconclusive: 11.2 µM [activator, partial curve] | –
CCn1cc(C2C3=C(CC(C)(C)CC3=O)N(c3ccccc3)C3=C2C(=O)CC(C)(C)C3)c(C)n1 | inconclusive: 0.0158 µM [activator, full curve] | –
Cc1ccc(-c2nc3cccc(C)n3c2Nc2ccc3c(c2)OCO3)o1 | inconclusive: 14.1 µM [activator, partial curve] | –
CC(NS(=O)(=O)c1ccc2c(c1)CCN2C(=O)CCCC(=O)O)c1ccccc1 (centres undefined) | inactive | –
S=C(NCCCc1ccccc1)Nc1ccc(Cl)cc1 | inconclusive: 5.01 µM [activator, full curve, poor fit] | –
O=C(CSc1ccc(-c2ccc(F)cc2)nn1)N1CCCc2ccccc21 | inactive | –
CN(C)c1cccc(C(=O)N/N=C/c2ccsc2)c1 | active: 11.2 µM | –
COc1ccccc1-c1cc(C(F)(F)F)nc(S(=O)(=O)CCCC(=O)NCc2ccc(F)cc2)n1 | inconclusive: 31.6 µM [activator, single point] | –
Oc1[nH]c2ccccc2c1N=Nc1ccccc1F | active: 22.4 µM | –
O=C(O)c1ccc(COc2ccc(CO)cc2Cl)cc1 | inconclusive: 0.0089 µM [activator, full curve] | –
S=C(Nc1ccc(Oc2ccccc2)cc1)NC1CCCCCC1 | inconclusive: 1.78 µM [activator, partial curve] | –
COc1ccccc1OCCSc1nc2ccccc2c(=O)[nH]1 | inconclusive: 6.31 µM [activator, partial curve, poor fit] | –
O=C(Cn1cc(SCc2ccc(Cl)cc2)c2ccccc21)N1CCOCC1 | inconclusive: 35.5 µM [activator, single point] | –
CC1CCN(C(=O)CSCC(=O)Nc2nc(-c3cccs3)cs2)CC1 | inconclusive: 31.6 µM [activator, single point] | –
O=C(Nc1ccc(OC(F)(F)F)cc1)c1[nH]ncc1[N+](=O)[O-] | inconclusive: 12.6 µM [activator, single point] | –
CN(Cc1ccccc1)c1ncnc2ccc(Br)cc12 | inconclusive: 3.55 µM [activator, partial curve, poor fit] | –
COC(=O)Cn1c(=NC(=O)c2ccc(Cl)s2)sc2cc(F)ccc21 | – | inconclusive: 44.4% [activator]
C=CCn1c(SCC(N)=O)nnc1-c1cc2c(s1)CCC(CC)C2 (centres undefined) | inconclusive: 35.5 µM [activator, single point] | –
Nc1ccc2nc(-c3ccc(N)c(Cl)c3)[nH]c2c1 | inconclusive: 12.6 µM [activator, single point] | –
C#CCOCCOCCOCCNc1nc(N2CCOCC2)nc(N2CCN(C(=O)[C@H]([C@@H](C)O)n3cc(CCCCN)nn3)CC2)n1 | inconclusive: 0.0282 µM [activator, full curve, poor fit] | –
COc1cccc(C(=O)COc2ccc3c(C)c(Cc4ccccc4)c(=O)oc3c2)c1 | inactive | –
COc1ccc(-c2nnc(SCC(=O)N3CCOCC3)o2)cc1 | active: 14.1 µM | –
O=C1[C@@H]2Cc3c([nH]c4ccccc34)[C@@H](c3ccccc3)N2C(=O)[C@@H]2Cc3c([nH]c4ccccc34)[C@@H](c3ccccc3)N12 | inconclusive: 5.62 µM [activator, single point] | –

SMILES | Potency | activity change, positive = activation
O=C(COc1ccccc1-c1ccccc1)NN=C1CCCC1 | inactive | –
Cc1cccc(-n2c3nc(=O)[nH]c(=O)c-3cc3ccc(Cl)cc32)c1C | inactive | –
COc1ccc(C(=O)Nn2c(SCC(=O)NCc3ccccc3)nc3ccccc3c2=O)cc1 | inconclusive: 2.82 µM [activator, full curve] | –
COc1ccccc1NC(=O)c1cc(Cl)ccc1NC(=O)c1ccco1 | inconclusive: 0.0032 µM [activator, full curve, poor fit] | –
O=C(N/N=C/c1c(Cl)cccc1Cl)c1n[nH]c2c1CCCC2 | active: 17.8 µM | –
CC(C)C[C@@H]1NC(=O)[C@H](Cc2ccc(O)cc2)NC(=O)[C@H](CCC(N)=O)NC(=O)c2cc([N+](=O)[O-])cc(I)c2NCC[C@@H](C(N)=O)NC1=O | active: 17.8 µM | –
COC(=O)C(C(=O)OC)c1ccc(NC(=O)c2cccc(Cl)c2)cc1 | inconclusive: 11.2 µM [activator, partial curve] | –
COc1ccc(C(=O)n2c(-c3ccco3)nc3ccccc32)cc1 | inconclusive: 14.1 µM [activator, single point] | –
COc1ccc(C(=O)Nc2cccc(OC(=O)c3ccc(C)c(C)c3)c2)cc1 | inconclusive: 20 µM [activator, single point] | –
O=c1[nH]ncc(N/N=C\c2ccncc2)c1Cl | inconclusive: 8.91 µM [activator, partial curve, poor fit] | –
CC(=O)OC1CC2C(C)(C)C(O)C=C[C@@]2(C)C2CC[C@@]3(C)C(c4ccoc4)OC(=O)C4OC43[C@]12C (some centres undefined) | inactive | –
O=C(c1cc(-c2ccccc2)nc2ccccc12)N1CCc2ccccc2C1 | inconclusive: 0.0089 µM [activator, full curve, poor fit] | –
COc1ccc(NC(=O)c2c(Cl)nc3ccccn23)cc1 | inconclusive: 17.8 µM [activator, single point] | –
Cc1ccc(Nc2nc(CSc3nnc(-c4ccccc4)n3C)cs2)cc1 | inconclusive: 1.41 µM [activator, partial curve, poor fit] | –
O=C(O)C1CCCN1C(=O)Oc1ccccc1 (centres undefined) | inconclusive: 15.8 µM [activator, single point] | –
COCCCN1C(=O)C(=O)/C(=C(/O)c2ccc3c(c2)CC(C)O3)C1c1cccnc1 (centres undefined) | inconclusive: 0.0089 µM [activator, full curve] | –
Cc1ccc(N2CC(C(=O)N3CCCc4ccccc43)CC2=O)cc1 (centres undefined) | inconclusive: 0.01 µM [activator, full curve, poor fit] | –
c1ccc(Nc2nc3ccccc3n3cnnc23)cc1 | inactive | –
N#CCc1nnc2n1-c1ccccc1CCC2 | inconclusive: 0.794 µM [activator, full curve, poor fit] | –
CC(C)c1ccc(NC(=O)C2CC(=O)N=C(N)S2)cc1 (centres undefined) | inconclusive: 0.316 µM [activator, full curve, poor fit] | –
COc1ccc(C2(C)NC(=O)N(CC(=O)Nc3ccc(S(=O)(=O)N4CCCC4)cc3)C2=O)cc1 (centres undefined) | inactive | –
CCCOc1ccc(OC(=O)c2ccc(Br)o2)cc1 | inactive | –
c1ccc2c(C3=NNC(=NC4CC4)SC3)c[nH]c2c1 | active: 2 µM | –

SMILES | Potency | activity change, positive = activation
COc1ccc(-n2ccn3c(CC(C)(C)CC(=O)O)nnc3c2=O)cc1 | inactive | –
CCCn1nnc(NC(=O)c2cccc(Cl)c2)n1 | inconclusive: 12.6 µM [activator, partial curve, poor fit] | –
CCC(=O)Nc1ccc(-c2cc3ccccc3oc2=O)cc1 | active: 8.91 µM | –
Cc1ccc(-c2nnc(-c3cccc(Br)c3)o2)cc1 | active: 12.6 µM | –
CC1(C)CC(=O)C=C(NCCN2CCN(C(=O)Nc3ccccc3)CC2)C1 | inconclusive: 0.708 µM [activator, full curve] | –
Cc1ccc(CNC(=O)CCc2c(C)c3cc4c(C)coc4cc3oc2=O)cc1 | inactive | –
CSCCC(NC(=O)c1ccc(Cl)cc1)C(=O)OCC(=O)Nc1ccc(C#N)cc1 (centres undefined) | inconclusive: 0.199 µM [activator, full curve, poor fit] | –
O=C(Nc1ccc(Cl)cc1Cl)C1=Cc2ccccc2OC1 | inconclusive: 15.8 µM [activator, single point] | –
O=C(O/N=C(\c1ccccc1)c1ccncc1)c1ccccc1Cl | inactive | –
CCN(CC)c1ccc2cc(C(N)=O)c(=O)oc2c1 | inconclusive: 35.5 µM [activator, single point] | –
O=C(O)/C=C/C(=O)NC1CCS(=O)(=O)C1 (centres undefined) | inconclusive: 5.62 µM [activator, single point] | –
COC(=O)C1=C(C)OC(N)=C(C#N)C1c1ccc(OC)c(OC)c1OC (centres undefined) | inconclusive: 0.794 µM [activator, full curve] | –
CCN(CC)c1nc2n(c(=O)n1)CCN2CC | inconclusive: 0.178 µM [activator, full curve, poor fit] | –
COC(=O)c1ccc(-c2nc3cc(N)ccc3o2)cc1 | inconclusive: 2.82 µM [activator, full curve] | –
Cc1ccc(/C(O)=C2/C(=O)C(=O)N(CCCn3ccnc3)C2c2ccccn2)cc1 (centres undefined) | inconclusive: 31.6 µM [activator, single point] | –
COc1ccc(N2Cc3ccccc3C2)cc1Cl | inconclusive: 5.62 µM [activator, full curve] | –
CC(C)Oc1ccc(C(CC(=O)O)NC(=O)C2CCCCC2)cc1 (centres undefined) | inconclusive: 3.98 µM [activator, single point] | –
COc1ccccc1-c1ccc(Nc2ccc(C(=O)N3CCOCC3)cc2)nn1 | inconclusive: 4.47 µM [activator, single point] | –
Cc1ccsc1C=C1C(=O)c2ccccc2C1=O | inactive | –
COc1ccc(CCNC(=O)CSc2ccc(-c3ccccc3)nn2)cc1 | inactive | –
O=C(NS(=O)(=O)Oc1ccc(Cl)cc1)OC[C@@H]1CCCN2CCCC[C@H]12 | inconclusive: 0.126 µM [activator, full curve, poor fit] | –
Cc1c(Cl)cccc1NC(=S)NCc1cccs1 | inconclusive: 4.47 µM [activator, single point] | –
CCc1ccccc1NC(=O)c1nc2nc(C)cc(C(F)F)n2n1 | inactive | –
